The campaign covered roughly 310,000 compounds. About 14,000 (4.5%) showed an effect of 50% or more. Effects have a minus sign here. This is one part of the list.
What follows are compounds tested against human ether-à-go-go-related gene (hERG) potassium channel (human, UniProt Q12809) (assay: primary screen, population patch clamp on CHO cells stably expressing hERG).
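Further: peak tail current of the secondary pulse compared with the same well before compound.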

Sequence of human ether-à-go-go-related gene (hERG) potassium channel (Q12809 whole entry, looked up): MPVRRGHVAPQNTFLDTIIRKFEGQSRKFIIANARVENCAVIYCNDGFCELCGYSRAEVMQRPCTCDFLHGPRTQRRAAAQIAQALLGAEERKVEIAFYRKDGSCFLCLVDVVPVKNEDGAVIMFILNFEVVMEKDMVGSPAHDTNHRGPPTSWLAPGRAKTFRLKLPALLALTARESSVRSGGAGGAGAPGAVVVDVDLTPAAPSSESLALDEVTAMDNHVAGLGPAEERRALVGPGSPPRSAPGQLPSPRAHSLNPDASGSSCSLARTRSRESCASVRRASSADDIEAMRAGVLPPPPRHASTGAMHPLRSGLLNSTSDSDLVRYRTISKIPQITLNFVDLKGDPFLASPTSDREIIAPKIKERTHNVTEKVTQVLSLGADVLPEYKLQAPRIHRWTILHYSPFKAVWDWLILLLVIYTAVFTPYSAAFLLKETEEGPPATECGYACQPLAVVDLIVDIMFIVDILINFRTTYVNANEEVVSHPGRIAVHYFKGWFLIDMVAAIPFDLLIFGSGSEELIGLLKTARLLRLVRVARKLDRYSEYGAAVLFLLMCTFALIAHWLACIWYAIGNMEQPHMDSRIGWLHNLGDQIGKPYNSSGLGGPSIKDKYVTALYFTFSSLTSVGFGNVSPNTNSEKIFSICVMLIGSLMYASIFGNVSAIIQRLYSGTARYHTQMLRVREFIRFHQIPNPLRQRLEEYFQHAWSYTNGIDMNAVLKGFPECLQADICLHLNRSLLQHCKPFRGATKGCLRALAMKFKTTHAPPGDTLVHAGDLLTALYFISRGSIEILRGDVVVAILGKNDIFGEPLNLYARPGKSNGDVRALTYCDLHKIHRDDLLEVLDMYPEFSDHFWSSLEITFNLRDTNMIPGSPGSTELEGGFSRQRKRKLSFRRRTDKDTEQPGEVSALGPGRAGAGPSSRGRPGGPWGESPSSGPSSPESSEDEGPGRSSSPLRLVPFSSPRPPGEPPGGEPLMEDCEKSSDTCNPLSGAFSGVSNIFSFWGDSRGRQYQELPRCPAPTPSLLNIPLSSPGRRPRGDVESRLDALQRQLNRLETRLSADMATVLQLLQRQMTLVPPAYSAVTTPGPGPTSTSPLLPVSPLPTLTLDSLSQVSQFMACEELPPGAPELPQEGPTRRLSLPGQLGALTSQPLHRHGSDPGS

| Compound | hERG current change (%, negative = inhibition) at 10uM |
| --- | --- |
| COc1ccc2cc(CCNC(=O)c3cc4ccccc4o3)c(=O)[nH]c2c1 | -21.3% |
| Cc1ccc(N2C(=O)CSC2c2c(F)cccc2Cl)cc1 (stereo not drawn) | -11.9% |
| COC(=O)C1=C(C(=O)c2ccc(C)cc2)C(c2ccc(O)c(OC)c2)n2nnnc2N1 (stereo not drawn) | 12.8% |
| O=C(CCn1c(=O)sc2ccccc21)NCc1ccco1 | -1.23% |
| CC(C)=C(NC(=O)c1ccccc1)C(N)=O | -6.55% |
| CCC(=O)N1CCN(c2ccccc2NC(=O)COc2ccc(C(C)C)cc2)CC1 | -31.1% |
| O=C(CSc1cccc[n+]1[O-])Nc1cc(S(=O)(=O)N2CCOCC2)ccc1N1CCOCC1 | 16% |
| Cc1cccc(C(=O)O/N=C(/c2ccccc2)c2ccncc2)c1 | -14.7% |
| C=C1CCN([C@@H](CC(C)C)C(=O)NCc2cc(OC)c(OC)c(OC)c2)S(=O)(=O)c2ccccc21 | 7.02% |
| Cc1ccc(NS(=O)(=O)c2c(C(=O)N3CCOCC3)c(C)n(C)c2C)cc1 | 20.3% |
| CCCOc1ccc(OCCNC2CCCC2)cc1 | -29.2% |
| CCc1ccc(-c2nc(NC(=O)c3ccc(OCC(=O)Nc4ccc(F)cc4)c(OC)c3)sc2C)cc1 | 8.14% |
| CN(Cc1ccccc1)C(=O)c1nc2ccccn2c1CN1CCc2sccc2C1 | -47.6% |
| O=C1C2Sc3[nH]c(=O)sc3C(c3ccccc3)C2C(=O)N1c1ccccc1 (stereo not drawn) | -2.84% |
| COc1ccc(OC)c(-n2c(SCC(=O)NCc3ccco3)nnc2-c2c[nH]c3ccccc23)c1 | -19.1% |
| COc1ccc(C2=NOC(C(=O)Nc3cc(C)on3)C2)cc1 (stereo not drawn) | 6.33% |
| COc1cccc(N2CCN(C(=O)c3ccccc3SCC(=O)NCc3ccco3)CC2)c1 | -12.4% |
| COc1cccc(NC(=O)[C@@H]2CCC(=O)N2C2OC(=O)c3ccccc32)c1 (stereo partly drawn) | -2.49% |
| COc1ccc(Cc2noc(CN(C)CC(O)c3ccccc3)n2)cc1OC (stereo not drawn) | -3.91% |
| COc1ccc(CCNC(=O)COC(=O)c2ccco2)cc1OC | 15.4% |
| C=CCn1cc(C(=O)N2CCc3ccccc3C2)c(=O)c2cc(S(=O)(=O)N(CC)CC)ccc21 | -45.7% |
| Cc1cc(C)n(C2CC(=O)N(c3ccc(Cl)c(Cl)c3)C2=O)n1 (stereo not drawn) | 0.639% |

| Compound | hERG current change (%, negative = inhibition) at 10uM |
| --- | --- |
| Cc1ccc(NC(=O)C2CSC3(C)CCC(=O)N23)cc1S(=O)(=O)N1CCOCC1 (stereo not drawn) | 2.81% |
| COCc1nc(-c2cc(Br)ccc2OC)no1 | -4.25% |
| Cn1c(CC(=O)Nc2ccccc2F)nnc1SCC(=O)N1CCOCC1 | 12.4% |
| N/C(=N\OC(=O)c1ccc2ccccc2c1)c1ccccn1 | 28.3% |
| CCOC(=O)Cc1csc(NC(=O)COc2ccc3c(c2)CCC3)n1 | -1.14% |
| CCn1c(SCC(=O)Nc2ccccc2C(=O)OC)nnc1-c1cccc(C)c1 | -36.2% |
| OC1CCN(Cc2cn(Cc3ccccc3)nc2-c2cc3ccccc3o2)CC1 | -50.7% |
| O=C(O)C1CSC(c2coc3ccccc3c2=O)N1 (stereo not drawn) | 7.24% |
| CCOC(=O)c1ccc(N2C(=O)CC(C3CCCO3)C2=O)cc1 (stereo not drawn) | -11.2% |
| COc1ccc(C2=NS(=O)(=O)N(C)C(C(=O)NCc3cccs3)=C2)cc1OC | -53.9% |
| Cc1ccc(CNC(=O)C2CCCN2S(=O)(=O)c2ccc(F)cc2)cc1 (stereo not drawn) | 0.876% |
| Cc1cccc(C(C(=O)NC2CCCCC2)N(Cc2cccnc2)C(=O)c2csnn2)c1 (stereo not drawn) | -1.78% |
| Cc1cnc(NC(=O)CSc2ncn(-c3ccccc3)n2)s1 | -12.9% |
| O=C(Nc1ccc(F)cc1)C1C(c2ccccc2)C1(Cl)Cl (stereo not drawn) | -8.21% |
| Cc1ccc(S(=O)(=O)N2CCC(C(=O)OCC(=O)N(C)C3CCCCC3)CC2)cc1C | -12.1% |
| CC1CCC(NC(=O)C2CCC(CNS(=O)(=O)c3ccccc3)CC2)CC1 (stereo not drawn) | 22.1% |
| CNc1ccccc1C(C)(C)c1cc(-c2ccco2)n[nH]1 | -9.17% |
| CS(=O)(=O)c1ccc(-c2cccc(NC(=O)COc3ccc(Cl)cc3)c2)nn1 | 6.7% |
| COc1cc(Cl)c(C)cc1NC(=O)CC1CCCC1 | 2.62% |
| Cc1c(C(=O)NCc2ccccn2)oc2ccc(S(=O)(=O)N3CCOCC3)cc12 | -7.04% |
| Cc1ccc(-n2[nH]c(C)c(CCC#N)c2=O)cc1 | 2.48% |
| O=S(=O)(Nc1ccc2c3c(cccc13)CC2)c1ccc(F)cc1 | -3.9% |

| Compound | hERG current change (%, negative = inhibition) at 10uM |
| --- | --- |
| CSc1ncccc1C(=O)OCC(=O)NC1CCCCC1 | -4.1% |
| CC(=O)c1c(C)[nH]c(C(=O)N2CCc3ccccc32)c1C | 9.47% |
| N/C(=N\OC(=O)c1ccccc1)c1cccnc1 | 29.9% |
| Cc1ccc(-n2nnnc2CNC(=O)c2ccc3c(c2)OCO3)cc1C | 12.3% |
| O=C(Nc1ccc2c(c1)OCO2)C1CC(c2cccc(Br)c2)=NO1 (stereo not drawn) | -3.43% |
| CC1CCCC(NC(=O)c2cccc(S(=O)(=O)NCc3ccccc3)c2)C1C (stereo not drawn) | -25.3% |
| Cl.O=C(NCCN1CCOCC1)c1cc2ccccc2o1 | 2.42% |
| O=[N+]([O-])c1ccc(S(=O)(=O)Nc2ccc(-c3csc(-c4ccccc4)n3)cc2)cc1 | 13.7% |
| COc1ccccc1OCc1nnc(SCC(=O)Nc2nnc(C3CC3)s2)n1C | 17.7% |
| CC(C)CN1C(=O)/C(=C(/C#N)C(=O)NC2CCCCC2)c2ccccc21 | 10.3% |
| Cc1ccccc1OCC(=O)Nc1ccc2[nH]ncc2c1 | -3.56% |
| CCOc1ccc(NC(=O)COc2ccccc2C(=O)NCc2ccccc2)cc1 | -22.9% |
| Cn1c(CSCc2ccccc2)nnc1SCC(=O)Nc1ccc(C(=O)O)cc1 | 4.3% |
| CCOc1ccccc1NS(=O)(=O)c1ccc2[nH]c(=O)ccc2c1 | -13.7% |
| CCOC(=O)Cc1cc(=O)n2[nH]cc(-c3cccc(Br)c3)c2n1 | 35.6% |
| COc1ccc(C(C(=O)NCC2CCCO2)N(C(=O)Cn2nnc3ccccc32)c2ccc(NC(C)=O)cc2)cc1OC (stereo not drawn) | 16.7% |
| Cc1cc(C)c(S(=O)(=O)N2CCCC(C(=O)N3CCOCC3)C2)c(C)c1 (stereo not drawn) | -17.7% |
| CCOc1ccc(CCNC(=O)C2CC(C)=CCC2C(=O)O)cc1OCC (stereo not drawn) | 19.2% |
| CN1C(=O)c2ccc(C(=O)NCc3ccc4c(c3)OCO4)cc2C1=O | -15.7% |
| COc1ccccc1C(=O)Nc1ccc(S(=O)(=O)N(C)c2ccccc2)cc1 | 7.19% |
| CCCCCc1ccc(CC(=O)Nn2c(C)nc3ccccc3c2=O)cc1 | -16.9% |
| CC12CC3CC(C)(C1)CC(C(=O)N1CCN(C(=O)C4CCCO4)CC1)(C3)C2 (stereo not drawn) | 13.4% |

| Compound | hERG current change (%, negative = inhibition) at 10uM |
| --- | --- |
| CCOC(=O)c1c(NC(=O)CSc2ncn[nH]2)sc(C(=O)NC)c1C | -7.99% |
| CCOc1cc(C(=O)NCC(=O)N/N=C/c2sccc2C)cc(OCC)c1OCC | 3.96% |
| CCN1CCN(C(=O)c2ccc3c(c2)N(Cc2ccccc2)C(=O)c2ccccc2S3(=O)=O)CC1 | 3.91% |
| N/C(=N\OC(=O)c1ccc(Cl)cc1)c1nonc1N | 15.5% |
| O=C(COC(=O)c1ccc(S(=O)(=O)NCc2ccco2)cc1)NC1CCCCCC1 | -1.42% |
| CCN(CC)CCNC(=O)c1ccc2c(=O)n(C3CCCC3)c(=S)[nH]c2c1 | -42.8% |
| O=C(c1ccccc1[N+](=O)[O-])N1CCC2(CC1)OCCO2 | 3.53% |
| Cc1cc(NS(=O)(=O)c2ccc(NC(=O)Nc3ccccc3)cc2)no1 | -5.51% |
| c1ncn(C23CC4CC(CC(C4)C2)C3)n1 | 24.7% |
| CCc1ccc(NC(=O)C2CCCN(S(=O)(=O)c3ccc4[nH]c(=O)ccc4c3)C2)cc1 (stereo not drawn) | 13.8% |
| COC(=O)CCCC1=CC2=CC(=O)C(C)(OC(=O)c3ccco3)C(=O)C2=CO1 (stereo not drawn) | 0.0796% |
| CC(C)(C)c1ccc(C2(C)NC(=O)N(CC(=O)Nc3ccc4c(c3)OCO4)C2=O)cc1 (stereo not drawn) | 0.52% |
| c1ccc(Oc2ccc(-c3ccnc4ncnn34)cc2)cc1 | 10.7% |
| Cc1ccnc(NC(=O)c2sc3cc(Cl)ccc3c2Cl)c1 | 15% |
| COc1cccc(NC(=O)Nc2cccs2)c1 | 1.52% |
| CCCn1c(=N)c(S(=O)(=O)c2ccc(F)cc2)cc2c(=O)n3cccc(C)c3nc21 | -4.16% |
| CC1=CC(C)(C)NC(=S)N1c1ccccc1C | -3.76% |
| Cc1nnc(NC(=O)CN2C(=O)c3ccccc3S2(=O)=O)s1 | -4.27% |
| Cc1ccc2c(c1)c1c(n2CC2COC(C)(C)O2)C(=O)CCC1 (stereo not drawn) | -25.2% |
| O=C(/C=C/c1c[nH]c2ccccc12)c1cccc2ccccc12 | 7.95% |
| Cc1cccc(OCC(O)CN2C(C)(C)CC(O)CC2(C)C)c1 (stereo not drawn) | -33.2% |

— PMC4336329 (PLoS ONE, 2015)
